Laboratory results as given in PubChem BioAssay AID1478 (National Center for Advancing Translational Sciences (NCATS), 2009).
Screen size: about 200,000 compounds; about 860 (0.43%) were called active. This list was built around the results that the source calls inconclusive (neither active nor inactive); the mix of calls is not that of the screen. Calls come from the whole dose curve; as a rule, active = well fitted inhibition curve with a large enough effect; inconclusive = small, poorly fitted or top-dose-only effect; inactive = flat fitted curve, though single readings scatter. A potency beside an inconclusive call is a rough fit, not a confirmed value.

target: Cruzipain (Trypanosoma cruzi) (UniProt P25779); experiment: qHTS Assay for Promiscuous and Specific Inhibitors of Cruzain (with detergent); details: purified cruzain, Z-FR-AMC fluorescence, 0.01% Triton; note: nearly all actives have a fitted effect of over 40% in size;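 for max response, negative = inhibition: plate controls were neutral wells for no effect and buffer without enzyme for full effect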
Summary of the method: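 In this qHTS format, compounds are incubated with 1.5 nM cruzain for 15 min at room temperature before 2 uM Z-FR-AMC is added. Release of AMC is followed at 360/450 nm, and progress is taken as the 60 s fluorescence difference.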
Potency is the fitted concentration of half-maximal effect; tags give direction and shape of the fitted curve.

UniProt P25779, sequence (P25779 whole entry, looked up): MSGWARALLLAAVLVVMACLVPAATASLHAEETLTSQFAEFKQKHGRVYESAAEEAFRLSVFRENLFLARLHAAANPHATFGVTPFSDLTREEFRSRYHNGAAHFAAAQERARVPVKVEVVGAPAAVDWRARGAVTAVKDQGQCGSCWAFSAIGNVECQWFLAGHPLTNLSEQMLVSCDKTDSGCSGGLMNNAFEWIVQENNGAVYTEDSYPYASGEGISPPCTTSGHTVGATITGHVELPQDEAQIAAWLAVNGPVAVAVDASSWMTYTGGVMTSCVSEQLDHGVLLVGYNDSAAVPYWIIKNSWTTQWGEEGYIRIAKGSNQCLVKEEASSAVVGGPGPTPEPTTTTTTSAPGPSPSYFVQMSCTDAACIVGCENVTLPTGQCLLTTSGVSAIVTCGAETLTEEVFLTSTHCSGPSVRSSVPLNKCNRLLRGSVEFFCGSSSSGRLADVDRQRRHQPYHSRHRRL

Row | SMILES | max response, negative = inhibition | Potency
1 | NNC(=O)Cc1cccnc1 | inactive: -1.17% | 
2 | CCCc1[nH]nc2c1C(c1cccc(OC(=O)c3ccco3)c1)C(C#N)=C(N)O2 (stereo unspecified) |  | inconclusive: 28.2 µM [inhibitor, single point]
3 | Cc1ccc(C(=O)NN2C(=O)/C(=C/c3cccn3C)SC2=S)cc1 | inactive: -9.45% | 
4 | c1ccc(-c2cn3cccnc3n2)cc1 |  | inconclusive: 39.8 µM [inhibitor, single point]
5 | COCCCn1c(=N)c(C(=O)NCC2CCCO2)cc2c(=O)n3ccccc3nc21 (stereo unspecified) |  | active: 28.2 µM
6 | c1coc(CN2CN=C(Nc3nc4ccccc4s3)NC2)c1 |  | inconclusive: 28.2 µM [inhibitor, single point]
7 | CSCC[C@H](NC(=O)c1cccc([N+](=O)[O-])c1C)c1nc2ccccc2[nH]1 |  | active: 14.1 µM
8 | O=C(CSCc1cnn(-c2ccccc2)c1-n1cccc1)Nc1ccc(F)cc1F | inactive: -9.83% | 
9 | Cc1cc(C)c(NC(=O)COc2ccccc2C(=O)Nc2ccc3c(c2)oc2ccccc23)c(C)c1 | inactive: -4.83% | 
10 | CCCc1cc(=O)oc2c(CN3CCCC3)c(O)ccc12 |  | active: 25.1 µM
11 | CC(C)CCNc1nc(-c2ccco2)c2c(c1C#N)CCCC2 |  | inconclusive: 15.8 µM [inhibitor, partial curve]
12 | C=CCNC(=O)c1cc2c(=O)n3cc(C)ccc3nc2nc1NCC1CCCO1 (stereo unspecified) |  | active: 22.4 µM
13 | Cc1ccc2nc(C3CCCN(C(=S)Nc4cccc(C)c4C)C3)[nH]c2c1 (stereo unspecified) |  | active: 14.1 µM
14 | Cc1ccc2nc3c(cc(C#N)c(=O)n3-c3nccs3)c(=O)n2c1 |  | inconclusive: 35.5 µM [inhibitor, single point]
15 | COCCn1c(=N)c(C(=O)NCC2CCCO2)cc2c(=O)n3ccccc3nc21 (stereo unspecified) |  | inconclusive: 35.5 µM [inhibitor, single point]
16 | O=c1c2ccccc2[se]n1-c1ccccc1 |  | inconclusive: 28.2 µM [inhibitor, single point]
17 | CSc1ccc(/C=N/NC(=O)c2cccc(Cl)c2)cc1 |  | inconclusive: 31.6 µM [inhibitor, single point]
18 | O=C(CNC(=O)c1ccccc1Cl)OCc1cc(=O)n2nc(C3CC3)sc2n1 |  | inconclusive: 20 µM [inhibitor, single point]
19 | O=C(c1ccc(Cn2cc(Br)cn2)o1)n1cccn1 |  | inconclusive: 28.2 µM [inhibitor, single point]
20 | CCN(CC)Cc1c(O)c(Cl)cc2c(C)c(C)c(=O)oc12 |  | inconclusive: 39.8 µM [inhibitor, single point]
21 | COc1ccccc1N1CCN(C(=O)CSc2nnc3c4ccccc4nc(Cc4ccccc4)n23)CC1 | inactive: -7.45% | 
22 | N#Cc1c(C(F)(F)F)cc(-c2ccco2)nc1SCc1ccncc1 |  | inconclusive: 25.1 µM [inhibitor, partial curve]
23 | O=C1C=CC2=C3c4cc(O)c(O)cc4CC3(O)COC2=C1O (stereo unspecified) |  | inconclusive: 35.5 µM [inhibitor, single point]
24 | CCOc1ccc(S(=O)(=O)Nc2ccc3c(c2)c2c(n3S(=O)(=O)c3ccc(OCC)cc3)CCCC2=O)cc1 | inactive: -0.939% | 

Row | SMILES | max response, negative = inhibition | Potency
25 | Cc1cc2c(C)cc(=O)oc2c2c1NCCC2 |  | active: 25.1 µM
26 | Cc1ccc(-n2nc(CO)c(C(=O)NCCc3ccccc3)n2)cc1C | inactive: -0.239% | 
27 | CN1CCN(c2ncc3ncc(=O)n(C4CC4)c3n2)CC1 |  | inconclusive: 39.8 µM [inhibitor, single point]
28 | Cc1c(C)c2cc(Cl)c(O)c(CN3CCN(C)CC3)c2oc1=O |  | inconclusive: 28.2 µM [inhibitor, single point]
29 | O=C(O)[C@H](/C=C\c1ccccc1)c1ccccc1 | inactive: 2.07% | 
30 | CCOC(=O)c1cnn(-c2cccc(F)c2)c1C1CCNCC1 | inactive: 2.42% | 
31 | C=CCNc1oc(/C=C/c2ccccc2)nc1C#N |  | active: 31.6 µM
32 | COc1ccc(NC(=O)CSc2nc(-c3ccc(OC)cc3)cc(=O)[nH]2)cc1 | inactive: 8.43% | 
33 | O=C(NCc1cccnc1)c1cccc(S(=O)(=O)N2CCOCC2)c1 | inactive: -0.682% | 
34 | CCc1c(C)c2ccc(O)c(CN(C)C)c2oc1=O |  | inconclusive: 35.5 µM [inhibitor, single point]
35 | O=C(O)c1ccc(C(=O)O)c(C(=O)Nc2ccc3c(c2)Cc2ccccc2-3)c1 | inactive: 7.42% | 
36 | CCOC(=O)c1[nH]c2ccccc2c1NC(=O)c1ccccc1OC | inactive: -8.33% | 
37 | C=C1c2ccccc2O[C@H](C(=O)OCC)[C@@H]1CCC(C)C (tested in a mixture with another compound) | inactive: -2.19% | 
38 | Cc1ccc(S(=O)(=O)NNC(=S)NC(=O)c2ccc([N+](=O)[O-])cc2)cc1 |  | inconclusive: 15.8 µM [inhibitor, partial curve]
39 | COC(=O)Cn1c(=NC(=O)c2ccc(OC)c(OC)c2)sc2cc(OC)ccc21 |  | inconclusive: 25.1 µM [inhibitor, single point]
40 | CC(=O)Nc1nnc(-c2ccc3c(c2)CCCC3)o1 | inactive: -1.84% | 
41 | COc1cc([C@@H]2c3cc4c(cc3C(OC3OC5COC(C)OC5C(O)C3O)C3COC(=O)[C@@H]32)OCO4)cc(OC)c1O (stereo partly specified) | inactive: 3.78% | 
42 | CCOc1ccccc1NC(=O)c1c(NC(=O)CNCc2ccco2)sc2c1CCC2 | inactive: -0.667% | 
43 | CCOC(=O)CSc1nc(N(C)C)nc(N(C)C#N)n1 |  | active: 15.8 µM
44 | CCN(CCO)c1nc(SC)nc2c1sc1nc(-c3ccco3)c3c(c12)CCC3 |  | active: 8.91 µM
45 | CC(NC(=O)c1ccccc1)C(=O)OCC(=O)N1c2ccccc2Sc2ccccc21 (stereo unspecified) |  | inconclusive: 20 µM [inhibitor, partial curve]
46 | O=C(CNC(=O)c1cccc(F)c1)OCC(=O)N1CCCc2ccccc21 |  | active: 11.2 µM
47 | CCNc1ncc2ncc(=O)n(Cc3ccc(F)cc3)c2n1 |  | inconclusive: 28.2 µM [inhibitor, single point]
48 | COCCNC(=O)c1cc2c(=O)n3cccc(C)c3nc2n(Cc2ccncc2)c1=N |  | inconclusive: 31.6 µM [inhibitor, single point]

Row | SMILES | max response, negative = inhibition | Potency
49 | CSCC[C@H](NC(=O)c1cc([N+](=O)[O-])ccc1Cl)c1nc2ccccc2[nH]1 |  | active: 22.4 µM
50 | N#C/C(=N\Nc1cc(Cl)cc(Cl)c1)c1nnc2n1CCCCC2 |  | inconclusive: 14.1 µM [inhibitor, partial curve]
51 | COC(=O)CSc1nnc([C@H](CC(C)C)NC(=O)OC(C)(C)C)o1 |  | inconclusive: 28.2 µM [inhibitor, single point]
52 | CCOc1ccc(/C=C/C(=O)Nc2sc3c(c2C(=O)OC)CCCC3)cc1 |  | inconclusive: 31.6 µM [inhibitor, single point]
53 | Cc1c(NC(=O)C(C)OC(=O)CNC(=O)c2ccccc2)c(=O)n(-c2ccccc2)n1C (stereo unspecified) |  | inconclusive: 22.4 µM [inhibitor, single point]
54 | Cc1cccc(CCNC(=O)c2cc3c(s2)-c2c(C)cccc2OC3)c1 |  | inconclusive: 25.1 µM [inhibitor, single point]
55 | COc1ccc(-c2nnc(SCC(=O)Nc3ccc(C)c(C)c3)s2)cc1 | inactive: -3.38% | 
56 | CCC(=O)Oc1ccc(C2Nc3ccccc3-c3nnc(SC)nc3O2)cc1 (stereo unspecified) | inactive: -7.93% | 
57 | [C-]#[N+]/C(C#N)=C\c1cc(C(C)(C)C)c(O)c(C(C)(C)C)c1 |  | inconclusive: 22.4 µM [inhibitor, single point]
58 | CC(=O)Nc1c(C)nn(-c2ccccc2)c1N1CCC(C(=O)NCc2ccccc2Cl)CC1 |  | active: 28.2 µM
59 | Cc1cc(C(=O)N/N=C/c2ccc(-c3ccccc3Cl)o2)n[nH]1 |  | inconclusive: 31.6 µM [inhibitor, single point]
60 | c1ccc(CN2CN=C(Nc3nc4ccccc4s3)NC2)cc1 |  | inconclusive: 28.2 µM [inhibitor, single point]
61 | N#C/C(=C\c1ccc(O)c(O)c1)C(=O)NCCCCc1ccccc1 |  | inconclusive: 31.6 µM [inhibitor, partial curve, poor fit]
62 | CC(C)C(C(=O)OCC(=O)c1cccc([N+](=O)[O-])c1)N1C(=O)[C@@H]2[C@H]3CC[C@H](C3)[C@@H]2C1=O (stereo partly specified) |  | active: 15.8 µM
63 | OCCNc1nc(Nc2ccccc2)nc2ccccc12 |  | inconclusive: 25.1 µM [inhibitor, partial curve]
64 | CCNS(=O)(=O)c1ccc(C)cc1 | inactive: 4.56% | 
65 | O=C(NCCN1CCCC1)c1ccc(Cn2c(=S)[nH]c3cc4c(cc3c2=O)OCO4)cc1 |  | inconclusive: 28.2 µM [inhibitor, single point]
66 | CCOc1ccc(-c2nnc(SCC(=O)NCc3ccccc3Cl)o2)cc1 |  | inconclusive: 28.2 µM [inhibitor, single point]
67 | COc1cc2c(cc1NC(=O)COC(=O)C(CCSC)NC(=O)c1ccccc1Cl)oc1ccccc12 (stereo unspecified) |  | inconclusive: 8.91 µM [inhibitor, partial curve]
68 | CN1CCN(c2ccc([N+](=O)[O-])c(N/N=C3\CN4CCC3CC4)c2)CC1 |  | inconclusive: 20 µM [inhibitor, single point]
69 | CC(C)CCNC(=O)[C@H](CC(C)C)NC(=O)[C@H]1O[C@@H]1C(=O)O |  | active: 0.1 µM
70 | Cc1ccc(NC(=O)Cn2cncc2-c2ccc([N+](=O)[O-])cc2)cc1C |  | inconclusive: 8.91 µM [inhibitor, full curve, poor fit]
71 | Cn1c(=O)n(C)c2cc(/C=N/NC(=S)NCc3ccccc3)ccc21 |  | active: 11.2 µM
